Laboratory results: the supplement of paper PMC4604168 (melanoma cell lines)
This is one part of the list. Single values are uncertain, as repeats are few or missing.

test system: WM1745; test: cell count relative to DMSO control; melanoma cells; higher = more viable cells; details: library dose: standard library concentration; 72 h
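Also: cells treated in 1,536-well plates, then fixed and DAPI-stained, with nuclei counted from automated high-throughput microscope images.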

SMILES | cell count
COCC[n+]1c2c(n(Cc3cnccn3)c1C)C(=O)c1ccccc1C2=O + O=c1cc(-c2cccc3c2Sc2ccccc2S3)oc(N2CCOCC2)c1 [KU55933] (first compound 0.002 µM, partner dose 5 µM) | 66.4%
Nc1cccc2c1CN(C1CCC(=O)NC1=O)C2=O (centres undefined) [lenalidomide] + O=C(CCCCCCC(=O)Nc1ccccc1)NO [vorinostat] (first compound 5 µM, partner dose 0.4 µM) | 86%
OCc1c[nH]c2ccccc12 [Indole-3-carbinol] + Cc1cc(N2CCOCC2)cc2[nH]c(-c3c(NC[C@@H](O)c4cccc(Cl)c4)cc[nH]c3=O)nc12 [BMS536924] (first compound 4 µM, partner dose 1 µM) | 61.3%
Clc1ccc(Nc2nnc(Cc3ccncc3)c3ccccc23)cc1 [vatalanib] + NC(=O)Nc1cc(-c2cccc(F)c2)sc1C(=O)N[C@H]1CCCNC1 [AZD7762] (first compound 10 µM, partner dose 0.1 µM) | 64%

test system: WM3526; test: as above; details: library dose: standard library concentration; 72 h

SMILES | cell count
O=C(CCCCCCC(=O)Nc1ccccc1)NO [vorinostat] + O=S(=O)(c1ccccc1)N(CC(F)(F)F)c1ccc(C(O)(C(F)(F)F)C(F)(F)F)cc1 [T0901317] (first compound 0.4 µM, partner dose 7 µM) | 66%
Nc1cccc2c1CN(C1CCC(=O)NC1=O)C2=O (centres undefined) [lenalidomide] + Cn1cncc1[C@@](N)(c1ccc(Cl)cc1)c1ccc2c(c1)c(-c1cccc(Cl)c1)cc(=O)n2C [tipifarnib] (first compound 5 µM, partner dose 0.05 µM) | 64.6%
COCC[n+]1c2c(n(Cc3cnccn3)c1C)C(=O)c1ccccc1C2=O + Cn1cncc1[C@@](N)(c1ccc(Cl)cc1)c1ccc2c(c1)c(-c1cccc(Cl)c1)cc(=O)n2C [tipifarnib] (first compound 0.002 µM, partner dose 0.05 µM) | 47.4%
Cn1c(Nc2ccc(C(F)(F)F)cc2)nc2cc(Oc3ccnc(-c4ncc(C(F)(F)F)[nH]4)c3)ccc21 + Oc1nc(-c2ccc(C(F)(F)F)cc2)nc2c1CSCC2 [XAV939] (first compound 0.4 µM, partner dose 10 µM) | 40.8%
Clc1ccc(Nc2nnc(Cc3ccncc3)c3ccccc23)cc1 [vatalanib] + C=CCn1c(=O)c2cnc(Nc3ccc(N4CCN(C)CC4)cc3)nc2n1-c1cccc(C(C)(C)O)n1 [MK1775] (first compound 10 µM, partner dose 0.1 µM) | 76.8%
OCc1c[nH]c2ccccc12 [Indole-3-carbinol] + C[C@@H]1CCN(C(=O)CC#N)C[C@@H]1N(C)c1ncnc2[nH]ccc12 [CP690550] (first compound 4 µM, partner dose 5 µM) | 101%
Cn1c(Nc2ccc(C(F)(F)F)cc2)nc2cc(Oc3ccnc(-c4ncc(C(F)(F)F)[nH]4)c3)ccc21 + Nc1cccc2c1CN(C1CCC(=O)NC1=O)C2=O [lenalidomide] (first compound 0.4 µM, partner dose 5 µM) | 58.6%
COCC[n+]1c2c(n(Cc3cnccn3)c1C)C(=O)c1ccccc1C2=O + O=C(O)C(=O)Nc1sc2c(c1C(=O)O)CCNC2 [TCS401] (first compound 0.002 µM, partner dose 8.33333 µM) | 40.2%
C#Cc1cccc(Nc2ncnc3cc(OCCOC)c(OCCOC)cc23)c1 [erlotinib] + O=C(Nc1cccc(Cl)c1)Nc1ncc(CCNc2ncnc3ccsc23)s1 [SNS314] (first compound 4 µM, partner dose 0.004 µM) | 49%
Cn1c(Nc2ccc(C(F)(F)F)cc2)nc2cc(Oc3ccnc(-c4ncc(C(F)(F)F)[nH]4)c3)ccc21 + COc1ccc2c(c1)CCC1C2CCC2(C)C(NCCCCCCN3C(=O)C=CC3=O)CCC12 [U73122] (first compound 0.4 µM, partner dose 2 µM) | 28.8%
Nc1cccc2c1CN(C1CCC(=O)NC1=O)C2=O (centres undefined) [lenalidomide] + O=S(=O)(c1ccccc1)N(CC(F)(F)F)c1ccc(C(O)(C(F)(F)F)C(F)(F)F)cc1 [T0901317] (first compound 5 µM, partner dose 7 µM) | 82.2%
OCc1c[nH]c2ccccc12 [Indole-3-carbinol] + O=C(CCCCCCC(=O)Nc1ccccc1)NO [vorinostat] (first compound 4 µM, partner dose 0.4 µM) | 85%
Nc1cccc2c1CN(C1CCC(=O)NC1=O)C2=O (centres undefined) [lenalidomide] + COc1ccc(COc2ccc(Cc3cnc(N)nc3N)cc2OC)cc1 [GW2580] (first compound 5 µM, partner dose 5 µM) | 87.8%
C#Cc1cccc(Nc2ncnc3cc(OCCOC)c(OCCOC)cc23)c1 [erlotinib] + COc1cc2ncnc(Nc3ccc(Oc4ccccc4)cc3)c2cc1OC [SrcI1] (first compound 4 µM, partner dose 10 µM) | 46.7%
OCc1c[nH]c2ccccc12 [Indole-3-carbinol] + CC1(C)NC(=O)N(c2ccc([N+](=O)[O-])c(C(F)(F)F)c2)C1=O [nilutamide] (first compound 4 µM, partner dose 5 µM) | 103%
OCc1c[nH]c2ccccc12 [Indole-3-carbinol] + CN(NC(=O)CC(=O)NN(C)C(=S)c1ccccc1)C(=S)c1ccccc1 [STA4783] (first compound 4 µM, partner dose 0.03 µM) | 104%
Clc1ccc(Nc2nnc(Cc3ccncc3)c3ccccc23)cc1 [vatalanib] + Cc1cc(N2CCOCC2)cc2[nH]c(-c3c(NC[C@@H](O)c4cccc(Cl)c4)cc[nH]c3=O)nc12 [BMS536924] (first compound 10 µM, partner dose 1 µM) | 86%
O=C(CCCCCCC(=O)Nc1ccccc1)NO [vorinostat] + O=C(O)C(=O)Nc1sc2c(c1C(=O)O)CCNC2 [TCS401] (first compound 0.4 µM, partner dose 8.33333 µM) | 72.1%
Nc1cccc2c1CN(C1CCC(=O)NC1=O)C2=O (centres undefined) [lenalidomide] + CN(C)S(=O)(=O)c1ccc2c(c1)/C(=C/c1cc3c([nH]1)CCCC3)C(=O)N2 [SU6656] (first compound 5 µM, partner dose 2 µM) | 79.6%
Nc1cccc2c1CN(C1CCC(=O)NC1=O)C2=O (centres undefined) [lenalidomide] + COC(=O)c1sccc1S(=O)(=O)Nc1ccc(Nc2ccccc2)cc1OC [GSK0660] (first compound 5 µM, partner dose 5 µM) | 97.4%
Nc1cccc2c1CN(C1CCC(=O)NC1=O)C2=O (centres undefined) [lenalidomide] + N#Cc1c(O)c2c(-c3ccc(-c4ccccc4O)cc3)csc2[nH]c1=O [A769662] (first compound 5 µM, partner dose 10 µM) | 77.1%
COCC[n+]1c2c(n(Cc3cnccn3)c1C)C(=O)c1ccccc1C2=O + COc1ccc(COc2ccc(Cc3cnc(N)nc3N)cc2OC)cc1 [GW2580] (first compound 0.002 µM, partner dose 5 µM) | 75.7%
Cn1c(Nc2ccc(C(F)(F)F)cc2)nc2cc(Oc3ccnc(-c4ncc(C(F)(F)F)[nH]4)c3)ccc21 + Cc1cc(N2CCOCC2)cc2[nH]c(-c3c(NC[C@@H](O)c4cccc(Cl)c4)cc[nH]c3=O)nc12 [BMS536924] (first compound 0.4 µM, partner dose 1 µM) | 33.6%
COCC[n+]1c2c(n(Cc3cnccn3)c1C)C(=O)c1ccccc1C2=O + Oc1cc(-c2nc(-c3ccccc3)[nH]c2-c2ccncc2)ccc1Cl [L779450] (first compound 0.002 µM, partner dose 1 µM) | 28.7%
C#Cc1cccc(Nc2ncnc3cc(OCCOC)c(OCCOC)cc23)c1 [erlotinib] + O=C1NC(=O)/C(=C/c2ccc(-c3ccc(F)cc3O)o2)S1 [AS252424] (first compound 4 µM, partner dose 5 µM) | 66.8%
Cn1c(Nc2ccc(C(F)(F)F)cc2)nc2cc(Oc3ccnc(-c4ncc(C(F)(F)F)[nH]4)c3)ccc21 + NCC(=O)Nc1ccc(-n2nc(C(F)(F)F)cc2-c2ccc3c(ccc4ccccc43)c2)cc1 [OSU03012] (first compound 0.4 µM, partner dose 5 µM) | 36.6%
C#Cc1cccc(Nc2ncnc3cc(OCCOC)c(OCCOC)cc23)c1 [erlotinib] + COc1ccc2c(c1)CCC1C2CCC2(C)C(NCCCCCCN3C(=O)C=CC3=O)CCC12 [U73122] (first compound 4 µM, partner dose 2 µM) | 68%
Clc1ccc(Nc2nnc(Cc3ccncc3)c3ccccc23)cc1 [vatalanib] + OCCn1cc(-c2cnc3nnn(Cc4ccc5ncccc5c4)c3n2)cn1 [PF04217903] (first compound 10 µM, partner dose 5 µM) | 72%
Nc1cccc2c1CN(C1CCC(=O)NC1=O)C2=O (centres undefined) [lenalidomide] + COc1ccc(-c2ccc3c(N4CCOCC4)nc(N4C[C@@H](C)O[C@@H](C)C4)nc3n2)cc1CO [KU0063794] (first compound 5 µM, partner dose 0.1 µM) | 90.8%
O=C(CCCCCCC(=O)Nc1ccccc1)NO [vorinostat] + C[C@@H]1CCN(C(=O)CC#N)C[C@@H]1N(C)c1ncnc2[nH]ccc12 [CP690550] (first compound 0.4 µM, partner dose 5 µM) | 77.4%
